Results on 92 sequences are retold here after the supplement of paper PMC5499739.

Whole data set: some 16,000 sequences, median “Z-score” near -0.37, cut for the highest 2% near 3.2. Some of the results follow.

This experiment relates to RBM10 RRM1-ZnF (GST-tagged construct). Kind of experiment: RNAcompete 7-mer binding Z-score; higher = stronger binding preference. The gist of the method: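 GST-tagged RBM10 constructs (20 pmol) and a designed pool of 241 399 RNAs up to 41 nt (1.5 nmol) were allowed to bind for 30 min at 4°C in 1 ml Hepes pH 7.8 buffer with glutathione Sepharose beads. After four 2-min washes at 4°C, bound RNA was identified by microarray hybridisation. Enrichment was scored per heptamer motif as a one-sided Z-score across the probes containing it.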
With UGGGGGU, the “RNAcompete 7-mer binding Z-score” value turned out to be 3.87.
With GAUCACA the figure was -0.305; with UCUCUUA, -0.795.
CAUUACC: the “RNAcompete 7-mer binding Z-score” value is -0.756.
The figure for UCAGUGC is -0.292; for GUAUCAA it is -0.126; for GGACUUA it is 0.102.
The figure for GCACAGU is -0.262; for GUGUCCG it is -0.253.
Turning to CUACGUG, the “RNAcompete 7-mer binding Z-score” value was -0.366.
The figure for UUAGGCA is 0.28; for UUGACCU it is -0.802; for UACAAAG it is -0.217.
Take AAACAGC: the “RNAcompete 7-mer binding Z-score” value was -0.542.
With UUAUUUA the figure was -0.584; with GGAGCUG, 1.74; with CUAGGAA, 0.589.
The figure for UUCUCUC is -0.756.
The figure for UGAGUGC is 0.254.
Consider GCUGCGG, for which the “RNAcompete 7-mer binding Z-score” value worked out at 1.13.
The figure for CAACAAG is -0.184.
In the case of GAAACUC, the “RNAcompete 7-mer binding Z-score” value was -0.659.
The figure for CUCGCUA is -0.655.
The figure for UUCAACG is -0.535.
As to GGAUCAG, the “RNAcompete 7-mer binding Z-score” value amounted to 1.4.
In the case of AUGUCAA, the “RNAcompete 7-mer binding Z-score” value is -0.308.
The figure for GUCCCGG is 0.118.
The figure for AGUAGGU is 1.68; for CGACGAC it is -0.311; for UGACAUG it is 0.319.
As for GCAUCCU, the “RNAcompete 7-mer binding Z-score” value was -0.746.
The figure for GUACGCU is -0.0674.
With AAGAUGA the figure was 0.417; with GAACAAG, 0.907; with UCGGAUC, -0.184.
With UAUCGCC the figure was -0.617; with AGUGACC, -0.00896; with CUAUGCA, -0.48.
Regarding GUCUGUA, the “RNAcompete 7-mer binding Z-score” value is -0.539.
With CACCUAG the figure was -0.188; with CUAUGGC, -0.461.
The figure for CCAAUUA is -0.513; for GCGAUAU it is -0.155.
Regarding GUAAGCG, the “RNAcompete 7-mer binding Z-score” value was 1.03.
The figure for GACUGGG is 2.42.
Regarding UGUGUGU, the “RNAcompete 7-mer binding Z-score” value was 0.0788.
UCGGGUG: the “RNAcompete 7-mer binding Z-score” value was 2.34.
With CAUCCUG the figure was -0.759; with GUUAUGG, 1.95.
With GGGAUAA the figure was 3.48; with AGUAAGG, 3.03; with CUUGCGA, -0.724.
The figure for UUGAGAC is -0.178; for UGAGGGU it is 3.48.
As to AUUGUGC, the “RNAcompete 7-mer binding Z-score” value is -0.383.
The figure for UCGUAGG is 0.277.
The figure for UAGGCAU is 0.16; for GUUGGCU it is 0.27; for CUGCGUA it is -0.506.
The figure for AUUUCAU is -0.805.
On to AAGGACC, for which the “RNAcompete 7-mer binding Z-score” value was found to be 0.725.
In the case of AGGUGUU, the “RNAcompete 7-mer binding Z-score” value was determined as 0.988.
Take CGCGCCU: the “RNAcompete 7-mer binding Z-score” value was -0.753.
The figure for GGUUAUC is 0.634.
In the case of AGCGGGU, the “RNAcompete 7-mer binding Z-score” value is 3.07.
With UCGAGAA the figure was -0.0967.
The figure for AGCAAUG is 0.043; for AUCAGGG it is 1.97; for AAUAGCU it is -0.474.
With AUGUCUG the figure was -0.48; with CUAGUUU, -0.782.
As to GCUCCGG, the “RNAcompete 7-mer binding Z-score” value was -0.191.
The figure for UGCCAAG is -0.314.
The figure for UCACUUA is -0.724.
As for CUCAAUG, the “RNAcompete 7-mer binding Z-score” value is -0.493.
With AGCCUCA the figure was -0.811; with CCCUGGG, 0.667.
With CACUUCG the figure was -0.6.
The figure for UCCGCCC is -0.591; for ACAGCGC it is -0.604; for GAGCAAC it is -0.0902.
As for ACAGUCA, the “RNAcompete 7-mer binding Z-score” value was -0.217.
On to UUAACGA, for which the “RNAcompete 7-mer binding Z-score” value is -0.438.
The figure for UUAAUAU is -0.529; for UUUUACA it is -0.707; for UCAGGUG it is 1.34.
Consider AUGGUCC, for which the “RNAcompete 7-mer binding Z-score” value is -0.0479.
As for ACACUUC, the “RNAcompete 7-mer binding Z-score” value is -0.834.
The figure for AUUAUCC is -0.73; for UGAGCUC it is -0.37.
The figure for CAAUGCA is -0.629; for CAGAUUC it is -0.61.
